Reference: ChEMBL document CHEMBL4888484, “Replenishing the malaria drug discovery pipeline: Screening and hit evaluation of the MMV Hit Generation Library 1 (HGL1) against asexual blood stage Plasmodium falciparum ,using a nano luciferase reporter read-out” (2022)
Out of some 4,800 compounds screened, about 410 (8.5%) showed an effect of 50% or more. The list shows a part of the results.

Test system: Plasmodium falciparum
Assay: Confirmatory screen in NF54 pLDH assay, in single point, at 2uM, 72h
Format: functional, Erythrocyte
Conditions: timepoint 72 hour

| Compound | % Inhibition [%] |
| --- | --- |
| COc1ccc(-c2nc3nnnn3cc2C)cc1OC | 12 |
| COCCN(Cc1c(-c2ccccc2)noc1N1CCN(C)CC1)C(=O)c1ccc(C)cc1 | 12 |
| CCN1c2cc(C(=O)NCc3ccncc3)ccc2C(=O)N2CCCC[C@H]21 | 5 |
| CCc1nnc(NC(=O)NCc2c[nH]nn2)s1 | -6 |
| Cc1ccc(Cn2c(=O)c(C(=O)NCc3ccc4c(c3)OCO4)nn(-c3ccc(C(C)C)cc3)c2=O)cc1 | 52 |
| CCS(=O)(=O)N1CCN(c2nc(Cc3ccc(C)cc3)nc3c2c(C)nn3-c2ccccc2)CC1 | -27 |
| Cc1cnc(C2CC2)n1CCNC(=O)C1(C)CCCCC1 | 1 |
| Cc1nn(C)c2c(N3CCc4ccccc4C3)nc(C3CC3)nc12 | -7 |
| N#C[C@@H](C(=O)NCc1cccnc1)c1nc(-c2ccccc2)cs1 | 5 |
| COc1ccc(C(=O)NCN2CCN(c3ccc(F)cc3)CC2)cc1OC | -4 |
| C[C@@H](CCNS(=O)(=O)c1c(Cl)cc(F)cc1Br)CC(=O)O | 8 |
| Cc1cc(-c2cc(O)cc(CC[C@H]3CCCCN3)c2)ccn1 | 91 |
| COc1ccc([C@@H]2COc3ccccc3C(=O)N2)cc1 | 1 |
| CCC1Cn2c(C(=O)NC(C)Cc3ccco3)cc3cccc(c32)O1 (centres undefined) | -13 |
| CCOc1cc(CNCCOC)ccc1O | 11 |
| COC[C@@H]1CCCN1c1ccc2c(c1)CNCC(=O)N1CC[C@@H](CC(=O)NCCN3CCOCC3)[C@@H](/C=C/CO2)C1 | -11 |
| O=C(Nc1ccc(N2CCOCC2)c(F)c1)OCc1ccccc1 | 2 |
| CCOCCC1(CNC(=O)c2cc(C)n[nH]2)CCC1 | 2 |
| CCc1cccc(NC(=O)Cn2ccc3ccc(-c4nnc(C)o4)cc32)c1 | 89 |
| COC(=O)CN(c1ccccc1)S(=O)(=O)c1ccc2nncn2c1 | 11 |
| Cn1nncc1C(=O)Nc1ccc(Br)c(C(F)(F)F)c1 | -1 |
| CN(C(=O)c1ccc(F)cc1)[C@H]1CCOC1 | -10 |

| Compound | % Inhibition [%] |
| --- | --- |
| CC(C)CCC(=O)NCC(=O)Nc1ccc(C#N)cc1 | -15 |
| COc1cccc(NC(=O)[C@H](Cc2ccccc2)NC(=O)c2cccnc2)c1 | -20 |
| O=C(Nc1cccnc1)c1ccc(-c2ccc(Cl)c(Cl)c2)o1 | 89 |
| COC(=O)[C@H](C#N)c1ccc(C#N)cn1 | 6 |
| C[C@H](NC(c1ccccc1)c1ccccc1)c1nnc(-c2cccs2)o1 | 7 |
| CC(C)Cn1cc2c(C(F)(F)F)cc(=O)n(CCC(=O)Nc3cc(F)ccc3F)c2n1 | 7 |
| O=C(CO[C@H]1CCCc2c[nH]nc21)NC(C1CC1)C1CC1 | -6 |
| CCOc1ccc(N(Cc2ccccc2F)S(=O)(=O)c2ccc3nnc(C)n3c2)cc1 | -7 |
| CN1CCN(C(=O)[C@H](C(=O)c2cccc(Cl)c2)n2ccccc2=O)CC1 | -13 |
| COc1cccc(Cn2c(=O)c3sccc3n(CC(=O)NCc3ccc(F)cc3F)c2=O)c1 | 13 |
| CCOC(=O)C1=CS/C(=C2/C(=S)C(C)(C)Nc3c(OCC)cccc32)S1 | -7 |
| COc1cccc(CN2CCN(c3ccc(F)cc3)C2=O)c1 | -3 |
| COc1ccc(Cl)cc1C(=O)Nc1cc(C2CC2)nn1-c1nc(C)cc(=O)[nH]1 | 72 |
| Cc1c(NC(=O)c2n[nH]cc2Br)c(=O)n(-c2ccccc2)n1C | 7 |
| COc1cccc(-c2cn(C)c3c(=O)n(CC(=O)Nc4ccc(C(F)(F)F)cc4)cnc23)c1 | 9 |
| Cc1[nH]nc(C(F)(F)F)c1NS(=O)(=O)c1cccs1 | 5 |
| Cc1cc(=O)n(CC(=O)Nc2cc(C)on2)c(-c2ccc(F)cc2)n1 | 2 |
| c1ccc2oc(N3CCCCCCC3)nc2c1 | 3 |
| COc1ccc(N2CCN(Cc3cc(-c4ccc(Cl)cc4)no3)CC2)cc1 | -19 |
| CCC(C)(C)c1ccc(OCC(=O)Nc2cccc(NC(=O)C3=NN(c4c(Cl)cc(Cl)cc4Cl)C(=O)C3)c2)c(C(C)(C)CC)c1 | -13 |
| COC(=O)C[C@H](NC(=O)c1ccc2ccccc2n1)C1CC1 | -18 |
| COc1ccc(-c2c(-c3cccc(OC)c3)[nH]c3c2c(=O)[nH]c(=O)n3C)cc1 | 97 |

| Compound | % Inhibition [%] |
| --- | --- |
| Cc1nn2cnnc2c(C)c1C/C=C/c1ccccc1 | 3 |
| Cc1cc(F)ccc1CS(=O)(=O)N1CCC(CN2CCOCC2)CC1 | 0 |
| Cc1n[nH]c([C@H]2CN(C(=O)OCC(F)(F)F)C[C@@H]2C2CC2)n1 | 8 |
| Cc1cc(Cl)cc2c1NC(=O)C21NC(CCC(=O)O)[C@H]2C(=O)N(Cc3ccccc3Cl)C(=O)[C@H]21 (some centres undefined) | -22 |
| CCN(CC)C(=O)c1cc(C)n(-c2ccc3c(c2)OCCO3)c1C | -3 |
| N=C(N)NCc1ccc(COCc2ccccc2)cc1 | 17 |
| Cn1nccc1C(=O)N(C1CCCCC1)C1CCCCC1 | -2 |
| Cc1cnn(Cc2cc(C(=O)N(C)Cc3nc4ccccc4n3C)no2)c1 | 7 |
| O=C(OC1CCCC1)C1CCCCC1C(=O)N1CCc2ccccc21 (centres undefined) | 10 |
| Cc1nn(-c2ccccc2)c2nc(Cc3ccccc3)nc(N3CCCN(C(=O)NC4CCCCC4)CC3)c12 | 8 |
| O=C(CN1CCC2(CC1)NC(c1ccccn1)=NO2)N1CCN(c2ccc(F)cc2)CC1 | 1 |
| O=C1CC(c2ccccc2)N2N=C(N3C(=O)C4CC=CCC4C3=O)NC2=N1 (centres undefined) | -3 |
| CN(CCOc1ccc(Cl)cc1Cl)[C@H]1CCS(=O)(=O)C1 | 5 |
| C[C@H]1CN(Cc2ccccc2)CC2(CCN(C(=O)N(C)C)CC2)O1 | 10 |
| CS(=O)(=O)N1CC[C@H](N(C(=O)NCCc2ccccc2)C2CCOCC2)C1 | -10 |
| Cc1cc(C(=O)NCCCn2cccn2)nc(N2CCOCC2)n1 | 5 |
| CCN1C(=O)c2ccccc2N2C(=O)CC[C@@]12C(=O)Nc1cccc(OC)c1 | 96 |
| Cc1ccc2c(c1)N(C(=O)c1c[nH]c(C)cc1=O)CCC2 | -3 |
| O=C(c1ccc(-n2cccn2)cc1)N1CCN(c2ccccc2O)CC1 | 11 |
| O=C1N[C@H]2C[C@@H](C(=O)NC[C@H]3O[C@H](CCOc4cc(-c5ccccc5)ccc41)CC[C@@H]3O)N(Cc1ccc3c(c1)OCO3)C2 | 12 |
